In the supplement of paper PMC10338343:
± gives the standard deviation. Over roughly 6,600 sequences, “pre-steady-state target cleavage rate” has its median near 0.07; the highest 2% begin near 0.72. Only a part is listed here, and it is no random draw.

Each sequence was assayed on MIWI (PIWIL1) piRISC loaded with Kctd7 piRNA (30 nt) (assay: pre-steady-state target cleavage rate (min^-1); MIWI and MILI are mouse PIWI proteins and EfPiwi is from a freshwater sponge; tags in brackets are library labels; higher = faster piRNA-guided slicing of the target). Settings: guide: Kctd7 piRNA 5'p-UGUUAAUCUCUCAGAGAAGGUGACAGUGAU; auxiliary factor: 500 nM mouse GTSF1.
How it was run: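 Cleave-'n-Seq: a transcribed, DNA-blocked target RNA library (0.1 nM) was mixed with 1 nM active affinity-purified piRISC carrying one synthetic guide, with or without 500 nM GTSF1 partner protein, in HEPES–potassium acetate buffer at 33 °C for 0–8 or 0–960 min. Uncleaved targets were sequenced and normalised to depth and to weakly complementary targets. Three trials were pooled, and k3 was capped at 0.0001 min^-1. The pre-steady-state cleavage rate came from a burst-and-steady-state fit.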

Point of comparison: UAGUGACAGUCCUUGCUCUGAGAGAUUAACA, “pre-steady-state target cleavage rate” value 0.0279 ± 0.0047. Against it:
- UACACAGACACCUUCUCUGAGAGAUUAACA — higher, 0.43 ± 0.028
- UAGUGUGUCAGGUUCUCUGAGAGAUUAAGA — within error, 0.0319 ± 0.0051
- UAGUGAGUCACCUUCUCUGAGACAUUAUGA — lower, 0.00655 ± 0.0036
- UAGAGUGUCACCUUCUCUGAGACAUUAACA — higher, 0.196 ± 0.02
- UAGUGACAGACCUUCUCUGAGAGAUUCAACA — higher, 0.103 ± 0.026
- UACACUGUCAGCUUCACUGAGAGAUUAACA — higher, 0.454 ± 0.027
- UUCACUGUCACCUACUCUGUGAGAUUAACA — higher, 0.177 ± 0.013
- UACACACUCACCUUCUCUGAGAGAUUAUGA — higher, 0.0563 ± 0.017
- UUCACUCUCACCUUCUCUGAGAGAUAAACA — higher, 0.137 ± 0.021
- UACACUGUCACCUUCUCUGAGAGAUCUAACA — higher, 0.415 ± 0.073
- UAGUGUGUCACCUACUCAGAGAGAUUAACA — higher, 0.122 ± 0.0095
- AUCACUGUCACCUACUCUGAGAGAUUAAGA — higher, 0.228 ± 0.037
- UAGUGACAGUCCUUCUCUGUGAGUUUAACA — lower, 0.00604 ± 0.002
- UAGUGUGUCACCUUCUCUGAGAGAAAUUGA [g7:g25:cont:t1A] — within error, 0.0437 ± 0.017
- UAGUGUGUCACCAUCUCUGAGAGAAUAACA — higher, 0.213 ± 0.039
- UACACUGAGACCUUCUCUGAGAGAUUAACA — higher, 0.572 ± 0.034
- UAGUCUGUCACCUUCUCUGAGAGAUUCAACA — higher, 0.432 ± 0.07
- UAGAGUGUCUCCUUCUCUGAGAGAUUAACA — higher, 0.667 ± 0.035
- UAGUGACACACCUUCUCAGAGACAUUAACA — within error, 0.0297 ± 0.0067
- UACACUGUCACCUACUCUGACAGAUUAACA — higher, 0.219 ± 0.021
- UAGUGACUCACCUACUCUGAGAGAUUAUGA — lower, 0.00463 ± 0.003
- UAGUGACAGUGCUUCUCUGAGAGAUUUACA — lower, 0.00717 ± 0.002
- UAGUGAGUCACCUGCUCUGAGAGAUUAACA — higher, 0.525 ± 0.025
- UAGUGACACACCUUCUCUGACAGAUUAAGA — lower, 0.00356 ± 0.003
- UACACUGUCACCGUCUCUGAGAGAUUAACA — higher, 0.513 ± 0.039
- UACACUGUCACCUUCUCUGAGAGAUUAAA — higher, 0.235 ± 0.036
- UAGUGUGAGACCUUCUCUGAGAGAUUAUGA — lower, 0.0142 ± 0.0052
- UAGUCUGUCACCAUCUCUCAGAGAUUAACA — higher, 0.0544 ± 0.0077
- AUCACUGUCACCUUCACUGACAGAUUAACA — higher, 0.295 ± 0.036
- UAGACUGUCACCUUGUCUGAGAGAUUAUGA — higher, 0.22 ± 0.046
- UUCACUGUCACCUUAUCUGAGAGAUUAACA — higher, 0.573 ± 0.024
- UAGUCUGACACCUUCUCUGAGAGAUUUACA — higher, 0.308 ± 0.04
- UAGACUGUCUGCUUCUCUGAGAGAUUAUGA — lower, 0.0109 ± 0.003
- UUCACUGAGACCUUCUCUGAGAGAUUAACA — higher, 0.54 ± 0.022
- UAGUGACAGACCUUCUCUGAGAGAAUUAACA — within error, 0.025 ± 0.006
- UACAGUGUCACCUUCUCUGACAGAUUAACA — higher, 0.467 ± 0.025
- UAGUGACAGUGCUUGCUCUGAGAGAUUAACA — lower, 0.0123 ± 0.0022
- UAGUGUGUCACCUUCUGUGUGAGAUUAACA — higher, 0.0844 ± 0.0075
- UAGUGACACACCAUCUCUGAGAGAUAAACA — higher, 0.0901 ± 0.014
- UAGUGAGUCACCUUCUGAGAGAGAUUAAGA — lower, 0.0137 ± 0.0058
- UAGACUAGUCACCUUCUCUGAGAGAUUAACA — higher, 0.756 ± 0.049
- UUCACUGUCAUCCUUCUCUGAGAGAUUAACA — higher, 0.287 ± 0.016
- AUCUCUGUCACCUUCUCUGAGAGAUAAACA — higher, 0.244 ± 0.028
- UAGACUGUCUCCUUCUCUGAGAGAAUAACA — higher, 0.455 ± 0.088
- UAGUCUGUCACCUACUCUGAGAGAUAAACA — higher, 0.299 ± 0.041
- UAGUGACAGUGGAUCUCUGAGAGAUUCAACA — lower, < 0.0001
- UAGUGUGUCACCUUGUCAGAGAGAUUAACA — higher, 0.0856 ± 0.0095
- UAGUGACACACCUUCUCUGAGAGAUUAAAA — higher, 0.169 ± 0.029
- UAGACUGUCACCUUCACUGAGAGAUUAUGA — higher, 0.248 ± 0.049
- UAGUGAGUCACGUUCUCUGAGACAUUAACA — higher, 0.0472 ± 0.0078
- UAGUGUGUCACCUUCUCUGAGAGAUUAAA — higher, 0.259 ± 0.04
- UAGUGAGUCACCUUCGCUGAGAGAUUAACA — higher, 0.282 ± 0.035
- UAGUGAGUCUCCUACUCUGAGAGAUUAACA — higher, 0.241 ± 0.02
- AUCACUGUCACCUUCUCUGAGAAAUUAACA — higher, 0.257 ± 0.026
- UAGUGUGUCACCUUCUCUGUGAGAUUAACA — higher, 0.26 ± 0.015
- UAGUGACACAACCUUCUCUGAGAGAUUAACA — higher, 0.345 ± 0.029
- UAGUGACACACCUUCUCUCAGAGAUUAUGA — lower, 0.005 ± 0.004
- UAGUGACACACCUACUCUGACAGAUUAACA — lower, 0.016 ± 0.003
- UAGACUGAGACCUUCUCUGAGAGAUUAAGA — higher, 0.106 ± 0.016
- UAGUGAGUCACCUUCUCUGACAGAUAAACA — higher, 0.177 ± 0.05
- UUCACUGUCACCUUCUCUGAGAUGAUUAACA — within error, 0.0295 ± 0.0066
- UAGUCUGUCACCUUCUGUGAGAGAUUUACA — within error, 0.0394 ± 0.0071
- UAGACUGUCAUCCUUCUCUGAGAGAUUAACA — higher, 0.262 ± 0.023
- UAGUGUGUCACCUUCUCUGAGAGGUUAACA — higher, 0.0968 ± 0.013
- UAGUGACUCAGCUUGUCUGAGAGAUUAACA — higher, 0.132 ± 0.021
- UAGUCUGUGUGCUUCUCUGAGAGAUUAACA — higher, 0.048 ± 0.0074
- UAGUGACACACGUUCUCUGACAGAUUAACA — lower, 0.00564 ± 0.004
- UAGUGACUCACCAUGUCUGAGAGAUUAACA — lower, 0.0069 ± 0.003
- UAGUGUGUCACCUUCACUGAGACAUUAACA — higher, 0.139 ± 0.022
- UAGUGAGUCACGUUCACUGAGAGAUUAACA — higher, 0.46 ± 0.026
- UUCACUGUCACCUUGUCUGAGAGAAUAACA — higher, 0.264 ± 0.067
- UACAGUGUCACCUUCUCAGAGAGAUUAACA — higher, 0.421 ± 0.026
- UAGUGACACACCUUCUCUGACAGAAUAACA — lower, 0.00829 ± 0.0033
- UUGACUGUCACCUUCUCUGAGAGAUUAUGA — higher, 0.0851 ± 0.016
- UACACUGUCACCUUCUCCUGAGAGAUUAACA — higher, 0.115 ± 0.043
- UAGUGUCUCACCUUCUCUGAGAGAUAUUGA — lower, 0.0113 ± 0.0057
- UAGUGAGUCAGCUUCACUGAGAGAUUAACA — higher, 0.424 ± 0.024
- UAGUGAGACACCUUGUCUGAGAGAUUAACA — higher, 0.142 ± 0.022
- UAGUCUCUCACCUUCUCUGAGAGAUUUUGA — within error, 0.0332 ± 0.014
- AUCUCUGUCACGUUCUCUGAGAGAUUAACA — higher, 0.657 ± 0.03
- UAGUGUGUCACCUUCUCAGACAGAUUAACA — higher, 0.131 ± 0.012
- UUCUGAGUCACCUUCUCUGAGAGAUUAACA — higher, 0.657 ± 0.059
- UAGUGACUCACCUUCAGUGAGAGAUUAACA — lower, 0.0171 ± 0.0036
- UACACUGUCACCUUCUCUGAGAGAUUAUCA — higher, 0.302 ± 0.043
- UAGUCUGUCACCUUCUCUCACAGAUUAACA — lower, 0.0152 ± 0.0046
- UAGUGAGUCACCUUCUCUGAGAGAUCUAACA — higher, 0.2 ± 0.029
- UAGUGUGUCACCUUCUCAGUGAGAUUAACA — within error, 0.0358 ± 0.0077
- UUCACUGUCACCUUCUCUGACAGAUUUACA — within error, 0.0247 ± 0.0078
- UAGUGACAGUGCUUCUCUGUGAGAUUAACA — lower, 0.00326 ± 0.0029
- UAGUGACAGACCUUCUGUGAGAGAUUAAGA — within error, 0.0177 ± 0.0059
- UAGUGACAGUCCUUCUCUGAGAGAUUACACA — lower, 0.0118 ± 0.0037
- UAGACUGUCACCUUCUCAGAGAGUUUAACA — higher, 0.138 ± 0.02
- UACACUGUCACCUUCUCUGAGAGAUUAAGCA — higher, 0.279 ± 0.041
- AUCACUGUCACCUUCUCUGAGAGUUUAACA — higher, 0.426 ± 0.064
- UUCACUGUCACGUUCUCUGAGAGAUUAUCA — higher, 0.275 ± 0.034
- UACACUGUCACCUUCUCUGAGUGAAUAACA — within error, 0.0294 ± 0.012
- UAGACUGUCACCUUCUCUGAGUGAAUAACA — lower, 0.00226 ± 0.0021
- UACACUGACACCUUCUCUGAGAGAUAAACA — higher, 0.246 ± 0.05
- UAGUGAGUCACCUUCUCUGAGAGAAAAAGA — within error, 0.0187 ± 0.009
- UACACUGUCAGCUUGUCUGAGAGAUUAACA — higher, 0.562 ± 0.027
- UAGUGUGUCACCUACUCUGAGAGAUUAUCA — higher, 0.468 ± 0.07
- UAGACUGUCACUUCUCUGAGAGAUUAACA — higher, 0.466 ± 0.041
- UAGUGAGUCACUCUUCUCUGAGAGAUUAACA — higher, 0.32 ± 0.021
- AUCACUGUCACCUUCUCUGAGAGAAUUACA — higher, 0.428 ± 0.095
- UACACUGUCUCCUUCUCUGAGACAUUAACA — higher, 0.0687 ± 0.0093
- UUCACUGUCACCUUGUCUGAGAGAUUAUGA — higher, 0.362 ± 0.075
